# Test results reported in PubChem BioAssay AID1476 (National Center for Advancing Translational Sciences (NCATS), 2009).
# “And” between values parts separate entries of the source, which are not always exact repeats. Identical values can stand only once. In all, about 200,000 compounds went through this assay and about 4,500 (2.2%) were called active. The shares of active, inactive and inconclusive entries below differ from those in the screen. Calls follow the shape of the dose curve; as a rule, active = well fitted inhibition curve with a large enough effect; inconclusive = small, poorly fitted or top-dose-only effect, or effect the other way; inactive = flat fitted curve, though single readings scatter. Potencies beside an inconclusive call are fits to weak or partial responses and may not hold up.
# Biological target: Cruzipain (Trypanosoma cruzi) (UniProt P25779)
# Assay: qHTS Assay for Promiscuous and Specific Inhibitors of Cruzain (without detergent); also: nearly all actives have a fitted effect of over 40% in size;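 as to max response, negative = inhibition: plate controls were enzyme without inhibitor for no effect and buffer without enzyme for full effect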
# Settings: purified cruzain, Z-FR-AMC fluorescence, no detergent
# Procedure, shortened: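 Purified cruzain at 1.5 nM, pre-incubated 15 min with compound at room temperature in 100 mM sodium acetate pH 5.5, 5 mM DTT, 0.00005% Triton X-100. Reaction started with 2 uM Z-FR-AMC; AMC fluorescence increase over 60 s gives rate.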
# Potency is read from the fitted curve at half-maximal effect; tags tell the direction and shape of the fitted curve.
# Chain of UniProt P25779 (P25779 whole entry, looked up): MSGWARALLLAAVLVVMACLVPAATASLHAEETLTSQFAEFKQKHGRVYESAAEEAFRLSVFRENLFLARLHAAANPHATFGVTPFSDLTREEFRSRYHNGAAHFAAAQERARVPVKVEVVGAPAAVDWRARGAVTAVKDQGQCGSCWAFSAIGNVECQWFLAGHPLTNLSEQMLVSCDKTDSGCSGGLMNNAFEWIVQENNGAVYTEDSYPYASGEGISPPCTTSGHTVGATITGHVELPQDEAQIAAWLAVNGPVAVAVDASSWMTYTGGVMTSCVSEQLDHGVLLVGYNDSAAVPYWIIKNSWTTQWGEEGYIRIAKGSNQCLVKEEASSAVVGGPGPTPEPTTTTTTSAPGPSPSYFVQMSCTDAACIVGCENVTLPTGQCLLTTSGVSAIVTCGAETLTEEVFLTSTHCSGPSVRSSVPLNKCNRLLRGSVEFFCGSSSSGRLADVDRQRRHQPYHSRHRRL
SMILES,Potency,"max response, negative = inhibition"
Cc1cc(NC(=O)C2CCC(CNS(=O)(=O)c3ccc(Br)s3)CC2)ccc1Br (stereo not drawn),"inconclusive: 39.8 µM [inhibitor, single point]",
COc1cccc(C(=O)Oc2ccc3c(C)cc(=O)oc3c2C(C)=O)c1,"inconclusive: 25.1 µM [activator, partial curve, poor fit]",
COc1ccc(C(=O)/C=C/c2ccc(F)cc2)c(OC(=O)c2ccc([N+](=O)[O-])cc2)c1,"inconclusive: 31.6 µM [inhibitor, single point]",
CCOc1ccccc1-n1c(CN2CCN(C(=O)c3ccco3)CC2)nc2ccccc2c1=O,,inactive: 14.3%
CC(=O)N1CCN(S(=O)(=O)c2cccc(C(=O)Nc3ccc4c(c3)CCC4)c2)CC1,"inconclusive: 39.8 µM [activator, single point]",
Cc1cccc(NC(=O)CSc2cn(CC(=O)N3CCCC3)c3ccccc23)c1C,,inactive: -13.7%
Cn1c(COc2ccc(Cl)cc2)nnc1SCc1ncc(-c2ccccc2)o1,"inconclusive: 31.6 µM [activator, single point]",
C=CCN(C(=O)CN1CCOCC1)c1nc(C)c(-c2ccccc2)s1,"inconclusive: 31.6 µM [activator, single point]",
C/C=C/c1ccc(OCCCN2C(=O)NC(C)(C)C2=O)c(OC)c1,"inconclusive: 25.1 µM [activator, single point]",
COC(=O)COc1cc(Br)c(/C=C2/SC(=O)N(CC(=O)N3CCCC3)C2=O)cc1OC,"inconclusive: 31.6 µM [activator, single point]",
COc1ccc(C)cc1NS(=O)(=O)c1ccc(NC(=O)CN(c2cc([N+](=O)[O-])ccc2C)S(C)(=O)=O)cc1,"inconclusive: 31.6 µM [inhibitor, single point]",
Nc1c(C(=O)NCc2ccc3c(c2)OCO3)nnn1CC(=O)Nc1ccc(Br)cc1,"inconclusive: 39.8 µM [inhibitor, single point]",
COc1ccc2c(c1)CC/C(=C/c1ccco1)C2=O,active: 20 µM,
Cc1cccc(C)c1OCC(=O)N1CCC(c2nc3ccccc3o2)CC1,,inactive: -7.64%
O=C1C2=C(Nc3ccccc3SC2c2ccc(Cl)c(Cl)c2)c2ccccc21 (stereo not drawn),active: 10 µM,
CCc1ccc(NC(=O)CC2C(=O)N(c3ccc(C)cc3)C(=O)N2CCc2ccncc2)cc1 (stereo not drawn),"inconclusive: 39.8 µM [activator, single point]",
COc1cc(C2=NOC(C(=O)N3CCN(c4ccc(F)cc4)CC3)C2)cc(OC)c1OC (stereo not drawn),"inconclusive: 39.8 µM [activator, single point]",
CN(C)S(=O)(=O)N1CCC(n2cnc3cccnc32)CC1,,inactive: 2.56%
COc1ccc(-c2cc3ccccc3oc2=O)cc1NC(=S)NC(=O)c1ccc2c(c1)OCCO2,active: 12.6 µM,
CCc1c(C)c2ccc(O)c(CN(C)C)c2oc1=O,"inconclusive: 31.6 µM [inhibitor, single point]",
CCOc1ccc(-c2c(C)nn3c(-c4ccccc4)c(C(=O)NCCOC)cnc23)cc1OCC,,inactive: -7.04%
COCCN(C(=O)Cn1nnc2ccccc21)C(C(=O)NC1CCCCC1)c1ccc(OC)cc1OC (stereo not drawn),"inconclusive: 39.8 µM [activator, single point]",

SMILES,Potency,"max response, negative = inhibition"
O=C(CNC(=O)c1ccc(Cl)cc1Cl)OCc1nc2ccccc2s1,active: 3.98 µM,
CCS(=O)(=O)c1nc(S(=O)(=O)c2ccc(C)cc2)c(NCc2ccc(Cl)cc2)s1,"inconclusive: 31.6 µM [inhibitor, single point]",
CCOc1ccc(N(CC)S(=O)(=O)N2CCCC(C(=O)Nc3ccc(NC(C)=O)cc3)C2)cc1 (stereo not drawn),"inconclusive: 31.6 µM [activator, single point]",
O=C(N/N=C/C(Br)=C/c1ccccc1)c1n[nH]c2c1CCC2,active: 15.8 µM,
O=c1c(CCc2ccccc2)nc2cnc(Oc3ccccc3)nc2n1C1CC1,"inconclusive: 1.58 µM [inhibitor, single point]",
COc1ccccc1-c1c(C#N)c(N)nc2c1CCc1ccccc1-2,"inconclusive: 5.01 µM [activator, partial curve]",
COc1ccc(-c2cc3nc(C)c(CCC(=O)Nc4ccc(F)cc4F)c(C)n3n2)c(OC)c1,,inactive: 22.4%
CC(C)CC(C(=O)Nc1oc(-c2ccccc2)c(-c2ccccc2)c1C#N)N1C(=O)c2ccccc2C1=O (stereo not drawn),active: 3.16 µM,
OCCN(CCO)c1ccc(C(c2ccc(Cl)cc2)c2ccc(N(CCO)CCO)cc2Cl)c(Cl)c1,"inconclusive: 25.1 µM [activator, partial curve]",
C=C(C(C)=O)C(O)/C=C/c1ccco1 (stereo not drawn),,inactive: 16.1%
CN(C)C[C@H]1CCC[C@@H](CN(C)C)C1=O,,inactive: -3.4%
COc1cc2c(cc1NC(=O)CSc1nnnn1-c1ccccc1)oc1ccccc12,active: 31.6 µM,
COc1ccc(NC(=O)N(Cc2cccs2)Cc2cc3cc4c(cc3[nH]c2=O)OCO4)cc1,"inconclusive: 39.8 µM [inhibitor, single point]",
COc1cc2ccc([C@H](C)NCC#N)cc2cc1OC,,inactive: 1.49%
COc1ccc(CNc2nc(-c3ccco3)nn2C(=O)CC(C)C)cc1,,inactive: 18.4%
CCOC(=O)N1CCN(c2nc(-c3ccc(Cl)cc3)cs2)CC1,,inactive: 4.36%
O=C(NC1=NCCS1)c1csc2ccccc12,active: 15.8 µM,
CCCCS(=N)(=O)CCC(N)C(=O)O (stereo not drawn),,inactive: 8.66% and inactive: 3.41%
CC(=O)O[C@H]1CC2(C)[C@@H](C[C@@H](O)[C@H]3[C@@]4(C)CC[C@@H](O)[C@@H](C)[C@@H]4CC[C@@]32C)C1=C(CCC=C(C)C)C(=O)O (stereo partly drawn),"inconclusive: 3.16 µM [activator, full curve]",
COC(=O)c1ccc(C2C(Oc3ccccc3C)C(=O)N2CCc2ccc(OC)c(OC)c2)cc1 (stereo not drawn),"inconclusive: 31.6 µM [activator, single point]",
COc1ccc(Cc2nnc(C(=O)NCCCN3CCN(c4ccccc4F)CC3)o2)cc1OC,"inconclusive: 39.8 µM [activator, single point]",
